Test results reported in PubChem BioAssay AID1508649 (National Center for Advancing Translational Sciences (NCATS), 2021).
In all, about 43,000 compounds went through this assay and about 830 (1.9%) were called active. Inconclusive means that the source gave no clear call. Such entries were picked first, then a sample of the others. Rule for the calls: active = clear falling dose curves in both reporters; inconclusive = both reporters move, but less clearly or upward; inactive = either reporter flat; the % is the NLuc reporter signal. Potencies of inconclusive entries are left out as doubtful fits.

assay: Cell-based coincidence reporter assay to measure PMP22 gene transcription in S16 Pmp22-F2sN cells - Primary screen; details: S16 Pmp22-F2sN Schwann cells (luciferase reporters placed in the Pmp22 gene), FLuc/NLuc coincidence luminescence, 24 h; measured here: NLuc reporter readout, at 57.5 µM (top of the series); activity change, negative = inhibition: at the top concentration
Procedure, shortened: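 Transcriptional readout in edited S16(c9) cells: two luciferases reported from the Pmp22 locus, measured in turn after 24 h compound incubation.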
% is set by controls: 0 for no effect and ±100 for the full control effect; potency is the fitted concentration of half-maximal effect; tags give direction and shape of the fitted curve.

Compound | activity change, negative = inhibition | Potency
Cc1ccc(Cn2c(=O)n(Cc3ccc(Cl)cc3)c(=O)c3cccnc32)cc1 | inactive: -18% | –
Cc1nc2cc(-c3cccc(F)c3)nn2c(C)c1CCC(=O)NC1CCCCC1 | inactive: 16.1% | –
CCCOc1ccc(-c2cccc(NS(=O)(=O)c3cc(OC)ccc3OC)c2)nn1 | inactive: -1.19% | –
CC(=O)NCCc1nc2ccccc2n1CCCCOc1ccc(Cl)cc1 | – | inconclusive [phenotype inactive, single point]
CCN(c1ccccc1)c1nnc(NC(=O)Nc2cccc(C(F)(F)F)c2)s1 | inactive: -4.89% | –
CC(C)CCNC(=O)C(=O)Nc1c2c(nn1-c1ccccc1)CS(=O)(=O)C2 | – | inconclusive [phenotype inactive, single point]
CCOC(=O)c1c(NC(=O)CSc2cn(CCNC(=O)c3ccc(OCC)cc3)c3ccccc23)sc2c1CCCC2 | inactive: -20% | –
CCc1nnc(SCc2ccc(F)cc2Cl)c2cc3sccc3n12 | inactive: -12.9% | –
CCOc1ccc(NC(=O)c2cc(=O)c3ccc(C)c(C)c3o2)cc1 | – | inconclusive [phenotype inactive, single point]
CCc1c(-c2ccccc2)nc2ccccc2c1C(=O)NCc1ccc(C)cc1 | – | inconclusive [phenotype inactive, single point]
O=C(CSc1nnc(-c2ccc([N+](=O)[O-])cc2)o1)Nc1ccccc1 | inactive: -5.13% | –
COc1cc2c(cc1OC)C(COc1cc(C)cc(C)c1)N(C(=O)COc1ccccc1)CC2 (centres undefined) | – | inconclusive [phenotype inactive, partial curve]
Cc1ccc(CCNC(=O)CCS(=O)(=O)c2cc3c(cc2C)NC(=O)CO3)cc1 | inactive: -1.7% | –
CCOc1ccc(NC(=O)c2oc3ccccc3c2NC(=O)c2c(F)cccc2F)cc1 | inactive: -6.11% | –
COC(=O)c1cc(S(=O)(=O)NCC2CCN(Cc3ccc(C)cc3)CC2)c[nH]1 | – | inconclusive [phenotype inactive, single point]
CC(=O)Nc1cc(-c2nc3ccccc3s2)ccc1C | inactive: -3.78% | –
O=C(NCc1ccccc1)c1ccc(CSc2nc3cccnc3n2Cc2ccccc2F)cc1 | – | inconclusive [phenotype inactive, single point]
Cc1ccc(-n2ncc3c(N4CCC(Cc5ccccc5)CC4)ncnc32)cc1 | – | inconclusive [phenotype inactive, single point]
Cc1ccc(-c2nnc(Nc3cccc(Cl)c3)c3ccccc23)cc1S(=O)(=O)N1CCN(C)CC1 | – | inconclusive [phenotype inactive, single point]
CCOc1ccc(OCC)c(NC(=O)c2nnn(CC(=O)Nc3cc(Cl)ccc3OC)c2N)c1 | – | active: 11.3 µM
CCC(=O)N1CCc2cc(CNC(=O)c3cccc(N(C)C)c3)ccc21 | – | inconclusive [phenotype inactive, single point]
O=C(CSc1nccn1Cc1ccc(Cl)cc1)Nc1nc2ccccc2s1 | inactive: 2.45% | –

Compound | activity change, negative = inhibition | Potency
CCCCCn1c(CCCNC(=O)c2ccc(Cl)cc2)nc2ccccc21 | – | inconclusive [phenotype inactive, single point]
Cn1c(=O)c2sccc2n2c(CCCC(=O)Nc3ccc(Oc4ccccc4)cc3)nnc12 | inactive: -24.6% | –
Cc1nc2cc(-c3cccc(F)c3)nn2c(C)c1CCC(=O)NCCc1ccccc1 | inactive: -28.4% | –
O=C(Nc1ccc2c(c1)CCCN2C(=O)c1cccs1)c1ccc(F)c(F)c1 | – | inconclusive [phenotype inactive, single point]
COc1ccc(C(=O)NCCn2cc(SCc3ccc(C(F)(F)F)cc3)c3ccccc32)cc1OC | – | inconclusive [phenotype inactive, partial curve]
CC1=C(C(=O)Nc2ccccc2C)C(c2cccs2)n2nc(SCc3ccccc3)nc2N1 (centres undefined) | – | inconclusive [phenotype inactive, single point]
COc1ccc(NCc2cccn2-c2nnc(N3CCCCCC3)s2)cc1 | inactive: -19% | –
CCCCn1c(CNC(=O)C23CC4CC(CC(C4)C2)C3)nnc1SCC(=O)Nc1ccc(C)cc1 | – | inconclusive [phenotype inactive, single point]
O=C(Cn1ncc2c3ccccc3n(Cc3ccccc3F)c2c1=O)NCc1ccccc1Cl | – | inconclusive [phenotype inactive, single point]
CC(C)c1nnc(N2C(=O)c3oc4ccccc4c(=O)c3C2c2ccccc2F)s1 (centres undefined) | – | inconclusive [phenotype inactive, partial curve, poor fit]
Cc1ccc(-n2ncc3c(Nc4cccc(Cl)c4)ncnc32)c(C)c1 | inactive: -39.8% | –
COc1ccc(NC(=O)C2CCCN(c3nnc(C)c4c(C)n(-c5ccccc5)nc34)C2)cc1Cl (centres undefined) | – | active: 20 µM
Cc1ccc(/C=C(\C#N)c2nc3ccccc3c(=O)[nH]2)cc1 | inactive: -17.3% | –
CC(C)c1ccc(N2C(=O)CSC23C(=O)N(Cc2ccccc2)c2ccccc23)cc1 (centres undefined) | – | inconclusive [phenotype inactive, single point]
Cc1ccc(C)c(N2CCN(C(=O)c3cnn(-c4ccccc4Cl)c3C3CCN(C(=O)OC(C)(C)C)CC3)CC2)c1 | – | inconclusive [phenotype inactive, single point]
Cc1cc(C)cc(NC(=O)Cn2cc(C(=O)c3cccs3)c3ccccc32)c1 | – | inconclusive [phenotype inactive, single point]
CCN(Cc1ccccc1)Cc1c(O)ccc2oc(C)c(C(=O)Nc3ccc(C)cc3C)c12 | – | inconclusive [phenotype inactive, partial curve]
CCc1c(C)nc2nncn2c1NCc1ccccc1 | – | inconclusive [phenotype inactive, single point]
CCCCOc1ccc(Cn2c(=O)oc3ccc(C)cc32)cc1OC | inactive: -12.8% | –
CCN(CC)c1ccc(NS(=O)(=O)c2cc(-c3cc(C)no3)ccc2C)c(C)c1 | – | inconclusive [phenotype inactive, single point]
Cc1c(Cl)cccc1-c1ccc(/C=C(\C#N)c2nc3ccccc3[nH]2)o1 | – | inconclusive [phenotype inactive, single point]
CCOC(=O)c1ccccc1NC(=O)Cn1ccn2nc(-c3ccc(OCC)cc3)cc2c1=O | inactive: 7.07% | –

Compound | activity change, negative = inhibition | Potency
COc1ccc(OC)c(NC(=O)Cn2c(=O)cc(C)c3c(C)nn(-c4cccc(Cl)c4C)c32)c1 | – | inconclusive [phenotype inactive, single point]
O=C(NCCC1=CCCCC1)c1ccc2c(c1)N(Cc1ccccc1)C(=O)c1ccccc1S2=O (centres undefined) | – | active: 12.7 µM
O=C(Nc1cccc(C(F)(F)F)c1)Nc1ccc2snnc2c1 | – | active: 9.46 µM
COC(=O)c1ccccc1NC(=O)c1ccc(=O)n(Cc2cccc(C)c2)c1 | – | inconclusive [phenotype inactive, single point]
Cc1cccn2c(=O)cc(COc3cccc(NC(=O)c4cccc(Cl)c4)c3)nc12 | – | inconclusive [phenotype inactive, partial curve, poor fit]
CCn1c(=O)n(CC)c2cc(N3CCCC3)c(NC(=O)Nc3cc(C)cc(C)c3)cc21 | – | inconclusive [phenotype inactive, single point]
Cc1ccc(NS(=O)(=O)c2ccc3c(c2)C(C(C)C)C(=O)N3)cc1C (centres undefined) | – | inconclusive [phenotype inactive, single point]
COc1ccc(CCNC(=O)CCCn2nc(C)c3sc4ccccc4c3c2=O)cc1OC | inactive: -31.8% | –
Cc1nn(-c2ccccc2)c2sc(C(=O)Nc3cccc(O)c3)cc12 | – | inconclusive [phenotype inactive, single point]
CCN(c1ccccc1)S(=O)(=O)c1nnc(NC(=O)c2ccco2)s1 | inactive: 23.7% | –
CCN(c1ccccc1)c1nnc(NC(=O)Nc2ccc(C)cc2)s1 | – | inconclusive [phenotype inactive, single point]
O=C(Nc1ccccc1Cl)c1cc2c(-c3ccccc3)nn(-c3ccccc3)c2s1 | inactive: -3.62% | –
Cc1ccc(C)c(N2CCN(S(=O)(=O)c3cc(C(=O)Nc4cc(Cl)cc(Cl)c4)ccc3F)CC2)c1 | – | inconclusive [phenotype inactive, single point]
Cc1ccc(C)c(NC(=O)c2cc(S(=O)(=O)NCCC3=CCCCC3)ccc2F)c1 | – | inconclusive [phenotype inactive, single point]
Cc1cccc(-n2nnnc2S(C)(=O)=O)c1 | – | active: 6.7 µM
O=C(NCCCN1CCN(c2ccccc2F)CC1)c1nnc(Cc2ccc(Cl)cc2Cl)o1 | – | inconclusive [phenotype inactive, single point]
CCC(=O)N1CCc2cc(Br)cc(S(=O)(=O)NCCc3ccccc3)c21 | – | inconclusive [phenotype inactive, single point]
CCN1CCN(CCCNC(=O)c2ccc3c(c2)sc2nc(-c4ccc(OC)cc4)cn23)CC1 | – | inconclusive [phenotype inactive, single point]
Cc1cccc(C)c1NC(=O)Cn1nc(C)c2sc3ccccc3c2c1=O | – | inconclusive [phenotype inactive, single point]
CCn1cc2nc(SCc3ccccc3F)n(Cc3ccc(C)cc3)c(=O)c2n1 | – | inconclusive [phenotype inactive, partial curve, poor fit]
